The species named for the series is Rattus norvegicus. Description: DrugMatrix - Regimen: Daily Repeat. Also on record: regimen Daily Repeat, gender Male, age 6-8 weeks. It is filed as toxicity, organism-based, Sprague-Dawley. The following applies: in vivo, po, 0 mg/kg, 120 h, tissue Plasma, route oral GAVAGE, dose level Control, time 5 day, vehicle .5 % CMC.

Each structure is given as a SMILES string. For part of its entries the source gives two or more results. The other results are left out here. There may be further records. The values listed for one entry are repeated measurements across runs, samples, wells, individuals or studies. Records carry a tag for their origin. A, B and so on number the origins entry by entry.

As for `Cc1ccc2cc3c(ccc4ccccc43)c3c2c1CC3` [3-METHYLCHOLANTHRENE], the “TOTAL BILIRUBIN” value is 0.18 mg/dL [study A] and 0.55 mg/dL [study B].

These data come from ChEMBL document CHEMBL3885881, “DrugMatrix”.
